# According to PMC12820563:
# Some of the results follow. The list includes weakly bound sequences.
# Target: T1, MBP-FoxP3dN (UniProt Q99JB6)
# T1 sequence: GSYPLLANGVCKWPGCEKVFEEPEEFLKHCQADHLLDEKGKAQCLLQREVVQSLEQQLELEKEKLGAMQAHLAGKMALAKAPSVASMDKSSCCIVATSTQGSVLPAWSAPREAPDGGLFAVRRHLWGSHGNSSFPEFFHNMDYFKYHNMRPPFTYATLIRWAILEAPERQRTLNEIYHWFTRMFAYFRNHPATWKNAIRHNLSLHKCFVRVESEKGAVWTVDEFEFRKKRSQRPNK
# Test: PD-seq (MBP pull-down with sequencing)
# Conditions: 20 mM Tris-HCl pH 7.5, 100 mM NaCl, 1.5 mM MgCl2, 0.4 uM protein, 0.1 uM dsDNA library, 30 min, room temperature, amylose pull-down; high values mean tight binding; double strand, one strand shown
row,Sequence,binding signal (RPM ratio (pull-down/input))
1,GATGATTGTTCTCCCAGCTGATGAATTGCTGTTATCGAGTAAACAAATTTTCCTAATCTTTCTGTTCAAGCGCCATCTAC,2.06
2,GATGATTGTTCTCCCAGCTGATGAATTGGTGAAATCGAGTAAACAAATTTTCCTAATCTTTCTGTTCAAGCGCCATCTAC,0.383
3,GATGATTGTTCTCCCAGCTGATGAATTCATTCCTTCGAGTAAACAAATTTTCCTAATCTTTCTGTTCAAGCGCCATCTAC,0.287
4,GATGATTGTTCTCCCAGCTGATGAATTGCCAAACTCGAGTAAACAAATTTTCCTAATCTTTCTGTTCAAGCGCCATCTAC,0.549
5,GATGATTGTTCTCCCAGCTGATGAATTATGCGACTCGAGTAAACAAATTTTCCTAATCTTTCTGTTCAAGCGCCATCTAC,3.1
6,GATGATTGTTCTCCCAGCTGATGAATTAATTCGGTCGAGTAAACAAATTTTCCTAATCTTTCTGTTCAAGCGCCATCTAC,0.288
7,GATGATTGTTCTCCCAGCTGATGAATTCTTCAACTCGAGTAAACAAATTTTCCTAATCTTTCTGTTCAAGCGCCATCTAC,0.219
8,GATGATTGTTCTCCCAGCTGATGAATTTGTTGCGTCGAGTAAACAAATTTTCCTAATCTTTCTGTTCAAGCGCCATCTAC,6.75
9,GATGATTGTTCTCCCAGCTGATGAATTATAACAATCGAGTAAACAAATTTTCCTAATCTTTCTGTTCAAGCGCCATCTAC,0.946
10,GATGATTGTTCTCCCAGCTGATGAATTAGGGCTGTCGAGTAAACAAATTTTCCTAATCTTTCTGTTCAAGCGCCATCTAC,0.403
11,GATGATTGTTCTCCCAGCTGATGAATTGTTTCGCTCGAGTAAACAAATTTTCCTAATCTTTCTGTTCAAGCGCCATCTAC,0.868
12,GATGATTGTTCTCCCAGCTGATGAATTGGGTGAGTCGAGTAAACAAATTTTCCTAATCTTTCTGTTCAAGCGCCATCTAC,0.443
13,GATGATTGTTCTCCCAGCTGATGAATTAACGATTTCGAGTAAACAAATTTTCCTAATCTTTCTGTTCAAGCGCCATCTAC,0.369
14,GATGATTGTTCTCCCAGCTGATGAATTGCTCAGCTCGAGTAAACAAATTTTCCTAATCTTTCTGTTCAAGCGCCATCTAC,0.355
15,GATGATTGTTCTCCCAGCTGATGAATTAGGTTGATCGAGTAAACAAATTTTCCTAATCTTTCTGTTCAAGCGCCATCTAC,1.42
16,GATGATTGTTCTCCCAGCTGATGAATTTTAATAATCGAGTAAACAAATTTTCCTAATCTTTCTGTTCAAGCGCCATCTAC,0.415

row,Sequence,binding signal (RPM ratio (pull-down/input))
1,GATGATTGTTCTCCCAGCTGATGAATTTCTTACTTCGAGTAAACAAATTTTCCTAATCTTTCTGTTCAAGCGCCATCTAC,0.283
2,GATGATTGTTCTCCCAGCTGATGAATTCTAGGGGTCGAGTAAACAAATTTTCCTAATCTTTCTGTTCAAGCGCCATCTAC,0.306
3,GATGATTGTTCTCCCAGCTGATGAATTTCCTAACTCGAGTAAACAAATTTTCCTAATCTTTCTGTTCAAGCGCCATCTAC,0.254
4,GATGATTGTTCTCCCAGCTGATGAATTTGACCATTCGAGTAAACAAATTTTCCTAATCTTTCTGTTCAAGCGCCATCTAC,0.421
5,GATGATTGTTCTCCCAGCTGATGAATTCTCGCTTTCGAGTAAACAAATTTTCCTAATCTTTCTGTTCAAGCGCCATCTAC,0.821
6,GATGATTGTTCTCCCAGCTGATGAATTATGGGACTCGAGTAAACAAATTTTCCTAATCTTTCTGTTCAAGCGCCATCTAC,0.434
7,GATGATTGTTCTCCCAGCTGATGAATTCACGTCTTCGAGTAAACAAATTTTCCTAATCTTTCTGTTCAAGCGCCATCTAC,0.44
8,GATGATTGTTCTCCCAGCTGATGAATTCATCGACTCGAGTAAACAAATTTTCCTAATCTTTCTGTTCAAGCGCCATCTAC,0.344
9,GATGATTGTTCTCCCAGCTGATGAATTTTTTCTTTCGAGTAAACAAATTTTCCTAATCTTTCTGTTCAAGCGCCATCTAC,0.184
10,GATGATTGTTCTCCCAGCTGATGAATTTGCTCCGTCGAGTAAACAAATTTTCCTAATCTTTCTGTTCAAGCGCCATCTAC,0.386
11,GATGATTGTTCTCCCAGCTGATGAATTGTTAAGGTCGAGTAAACAAATTTTCCTAATCTTTCTGTTCAAGCGCCATCTAC,0.393
12,GATGATTGTTCTCCCAGCTGATGAATTGAATACCTCGAGTAAACAAATTTTCCTAATCTTTCTGTTCAAGCGCCATCTAC,0.446
13,GATGATTGTTCTCCCAGCTGATGAATTGTTAAGTTCGAGTAAACAAATTTTCCTAATCTTTCTGTTCAAGCGCCATCTAC,0.441
14,GATGATTGTTCTCCCAGCTGATGAATTCGGCAGATCGAGTAAACAAATTTTCCTAATCTTTCTGTTCAAGCGCCATCTAC,0.307
15,GATGATTGTTCTCCCAGCTGATGAATTATTCCCGTCGAGTAAACAAATTTTCCTAATCTTTCTGTTCAAGCGCCATCTAC,0.253
